In article PMC6919601, “Identification of Plasmodium dipeptidyl aminopeptidase allosteric inhibitors by high throughput screening” (PLoS ONE, 2019):
The whole screen tested about 110,000 compounds, of which about 230 (0.21%) showed an effect of 50% or more. This is one part of the list.

These compounds were tested against DPAP1 (Plasmodium falciparum, UniProt Q8IIJ9) (assay: primary screen, percent inhibition; read by cleavage of a fluorogenic dipeptide substrate; higher = more effect of the substance).
DPAP1, sequence (Q8IIJ9 whole entry, looked up): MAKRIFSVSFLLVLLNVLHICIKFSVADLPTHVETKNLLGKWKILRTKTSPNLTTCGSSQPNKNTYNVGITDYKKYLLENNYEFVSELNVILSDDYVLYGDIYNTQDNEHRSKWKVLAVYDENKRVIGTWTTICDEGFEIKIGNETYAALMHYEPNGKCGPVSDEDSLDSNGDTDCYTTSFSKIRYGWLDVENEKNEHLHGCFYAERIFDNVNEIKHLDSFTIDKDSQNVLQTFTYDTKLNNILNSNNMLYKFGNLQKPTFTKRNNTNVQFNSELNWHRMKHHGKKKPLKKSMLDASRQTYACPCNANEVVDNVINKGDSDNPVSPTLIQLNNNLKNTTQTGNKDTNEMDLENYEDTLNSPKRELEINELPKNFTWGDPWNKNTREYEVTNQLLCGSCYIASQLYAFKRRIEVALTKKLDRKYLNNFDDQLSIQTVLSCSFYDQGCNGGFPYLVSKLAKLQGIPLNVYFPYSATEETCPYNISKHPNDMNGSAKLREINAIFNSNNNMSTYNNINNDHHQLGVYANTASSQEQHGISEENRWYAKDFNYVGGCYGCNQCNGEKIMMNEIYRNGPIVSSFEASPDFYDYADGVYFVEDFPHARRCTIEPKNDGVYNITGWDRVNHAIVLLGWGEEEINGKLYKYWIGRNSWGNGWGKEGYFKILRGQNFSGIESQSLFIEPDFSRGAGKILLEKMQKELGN
Design: species or system P. falciparum D10 trophozoite lysates; single well
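Further: 30 min substrate incubation versus DMSO and 10 µM JCP410 controls.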

First: O=C(NC(c1ccccc1)c1ccccc1)c1ccc(Cl)cc1Cl
Second: CC(C)Oc1ccc(C(CC(=O)Nc2nccs2)c2ccccc2)cc1 (stereo not drawn)
The “% Inhibition @ 10 uM” value of the first is lower: -5.26% for the first, -2.98% for the second.

Going from N#CC1=C(N)Oc2[nH]nc(-c3ccccc3)c2C1c1ccncc1 (stereo not drawn) to Cc1ccc2ncnc(-c3ccccc3)c2c1, the “% Inhibition @ 10 uM” value rises from -5.48% to 0.392%.

First: CCOc1ccc(NS(=O)(=O)c2ccc(F)cc2)cc1
Second: CCC(C)c1ccc(NC(=O)c2ccc(Br)cc2)cc1 (stereo not drawn)
The “% Inhibition @ 10 uM” value of the first is higher: 3.47% for the first, 0.247% for the second.

Going from C=C(Br)C[C@H](NC(=O)OCc1ccccc1)C(=O)NC(C#N)c1sccc1C (stereo partly drawn) to CCC(C(=O)Nc1sc2c(c1C(N)=O)CCCC2)c1ccccc1 (stereo not drawn), the “% Inhibition @ 10 uM” value falls from -1.41% to -3.24%.

Compared with N#CC1=C(N)Oc2c(oc(CO)cc2=O)C1c1c(Cl)cccc1Cl (stereo not drawn), CC1(C)CC(=O)C2=C(C1)OC(N)=C(C#N)C2c1ccc(F)c(Br)c1 (stereo not drawn) is higher in “% Inhibition @ 10 uM” value: -2.77% for the first, 0.317% for the second.

Going from Cc1cccc(C2=N/C(=C\c3coc4ccccc4c3=O)C(=O)O2)c1 to CCOc1ccc2ccccc2c1/C=C1\N=C(c2ccc3c(c2)OCO3)OC1=O, the “% Inhibition @ 10 uM” value falls from 2.92% to 1.76%.

Compared with O=S(=O)(c1ccc(Cl)cc1)N(Cc1nc(-c2ccccc2)no1)C1CCCCC1, Clc1ccc(-c2csc(N3CCN(C/C=C/c4ccccc4)CC3)n2)cc1 is higher in “% Inhibition @ 10 uM” value: -1.22% for the first, -0.403% for the second.

Going from COc1ccc(CCNC(=O)CCCN2C(=O)CSc3ncccc32)cc1OC to COc1ccc(C(=O)O/N=C(\N)c2ccccc2Cl)cc1OC, the “% Inhibition @ 10 uM” value rises from -4.15% to 0.343%.

Going from NC(=O)C1CCCN(C2C3CC4CC(C3)CC2C4)C1 (stereo not drawn) to CCOC(=O)N1CCN(S(=O)(=O)c2ccc(C3CCCCC3)cc2)CC1, the “% Inhibition @ 10 uM” value rises from -5.11% to -0.703%.

First: CCCCNS(=O)(=O)c1ccc2nc(O)ccc2c1
Second: C=CCN(CC=C)S(=O)(=O)c1ccc(NC(C)=O)cc1
The “% Inhibition @ 10 uM” value of the first is lower: -2.07% for the first, 6.08% for the second.

Going from COc1ccc(Br)cc1CNC(=O)C1CCN(c2nnc(N3CCCC3=O)s2)CC1 to Cc1ccc(CNC(=O)C2CCN(S(=O)(=O)c3ccc4[nH]c5c(c4c3)CCCCC5)CC2)cc1, the “% Inhibition @ 10 uM” value rises from -4.68% to 0.802%.

Going from Cn1c(=O)c2c(ncn2CC(=O)Nc2ccc(C(N)=O)cc2)n(C)c1=O to COc1ccc(C(=O)Nc2sc(C)c(C)c2C(N)=O)cc1Br, the “% Inhibition @ 10 uM” value rises from 1.02% to 1.07%.

First: Cc1sc2ncnc(SCC(=O)NC3CC3)c2c1C
Second: Cc1nccc2nc(O)c(C(=O)NC3CCCCC3C)cc12 (stereo not drawn)
The “% Inhibition @ 10 uM” value of the first is lower: 0.843% for the first, 2.35% for the second.

Going from CCOC(=O)c1c(C)oc2ncnc(NCc3ccc(Cl)cc3)c12 to CC(C)(CCO)Nc1ncnc2onc(-c3ccc(F)cc3)c12, the “% Inhibition @ 10 uM” value falls from 2.09% to 1.58%.

First: CC(C)(C)c1ccc(OCc2nn3c(Cn4cnc5ccccc54)nnc3s2)cc1
Second: CCOc1ccc(-c2nc3s/c(=C\c4ccccc4F)c(=O)n3n2)cc1
The “% Inhibition @ 10 uM” value of the first is higher: 11.7% for the first, 3.8% for the second.

First: CCCNC(=O)Cn1cc(S(=O)(=O)NC)c(S(=O)(=O)NC)c1
Second: CCCn1c2ccccc2c2cnn(CC(=O)NCCN(C)C)c(=O)c21
The “% Inhibition @ 10 uM” value of the first is higher: 3.25% for the first, 0.958% for the second.

First: CCOc1cc(C=C2C(=O)NC(=O)NC2=O)cc(Br)c1OCCOc1ccccc1C
Second: Cc1c(C(=O)O)cccc1-n1c(C)cc(/C=C2\NC(=O)NC2=O)c1C
The “% Inhibition @ 10 uM” value of the first is lower: -3.78% for the first, 3.47% for the second.

Going from Cc1cc(NCc2ccc(F)cc2)nc2cc(O)ccc12 to Cc1cc(C)nc(/N=C(\NCc2ccc(Cl)cc2)NC(=O)c2cccc(Cl)c2)n1, the “% Inhibition @ 10 uM” value rises from -3.11% to 0.146%.

Compared with O=C(NCCCn1ccnc1)c1cc2nc(-c3ccco3)cc(C(F)(F)Cl)n2n1, O=C1c2ccccc2C(=O)N1Cc1nc2ccccc2c(=O)n1CCCn1ccnc1 is higher in “% Inhibition @ 10 uM” value: 2.19% for the first, 7.18% for the second.

First: Cc1nc2sc3c(NCc4ccccc4)ncnc3c2c2c1COC(C)(C)C2
Second: COCCNc1ncnc2c1c(-c1ccccc1)cn2-c1cccc(C)c1
The “% Inhibition @ 10 uM” value of the first is higher: 2.1% for the first, -0.757% for the second.

Going from COc1ccc(O)c(C2=NN3C(C2)c2cc(Br)ccc2OC3c2ccncc2)c1 (stereo not drawn) to Cc1cc(Oc2ccc(C#N)cc2)nc(-c2ccc(Br)cc2)n1, the “% Inhibition @ 10 uM” value falls from 6.5% to -9.91%.

Going from N#C/C(=C\c1ccc(Br)cc1)c1nc(-c2ccc([N+](=O)[O-])cc2)cs1 to CC(NC(=O)/C=C/c1cccc([N+](=O)[O-])c1)c1ccccc1 (stereo not drawn), the “% Inhibition @ 10 uM” value rises from -3.03% to -2.51%.

Compared with COc1ccc(C(C)C)cc1S(=O)(=O)Nc1cccc(C(=O)O)c1, COc1ccc(-c2cc(C)no2)cc1S(=O)(=O)N(C)Cc1ccco1 is higher in “% Inhibition @ 10 uM” value: -1.27% for the first, 4.69% for the second.

Compared with CC(C)C(C(=O)O)N1C(=O)c2cccc3cccc(c23)C1=O (stereo not drawn), Cc1ccc(C)c(Cn2c(C)c(CNCCCc3ccccc3)c(C(=O)O)c2C)c1 is lower in “% Inhibition @ 10 uM” value: 3.82% for the first, 1.41% for the second.

First: COc1cc2c(cc1C=O)OC(C)C2 (stereo not drawn)
Second: COc1cc2c(cc1OC)C(COc1ccccc1OC)N(C(=O)C(C)C)CC2 (stereo not drawn)
The “% Inhibition @ 10 uM” value of the first is lower: 1.4% for the first, 1.42% for the second.

First: O=C(NC(N1CCCC1=O)(C(F)(F)F)C(F)(F)F)c1ccccc1
Second: CCOCCCNC(=O)C(c1ccccc1)N(Cc1ccc2c(c1)OCO2)C(=O)CNC(C)=O (stereo not drawn)
The “% Inhibition @ 10 uM” value of the first is lower: -13.4% for the first, -1.2% for the second.

First: CCCC1(O)CC(c2ccccc2)NC(c2ccccc2)C1CC (stereo not drawn)
Second: CN(C)CCN(Cc1ccccc1)c1ncnc2onc(-c3ccc(F)cc3)c12
The “% Inhibition @ 10 uM” value of the first is higher: -0.233% for the first, -2.52% for the second.

Compared with Cc1cc(OCC(=O)Nc2ccc(Br)cn2)ccc1Cl, CC(=O)C1=C(C)N=C(S)NC1c1cc(Br)ccc1O (stereo not drawn) is lower in “% Inhibition @ 10 uM” value: 6.15% for the first, -8.28% for the second.

Going from O=C(NC1CCS(=O)(=O)C1)OCCOC(=O)NC1CCS(=O)(=O)C1 (stereo not drawn) to CC1CCN(CCCNC(=O)CN2CCN(Cc3ccc(Cl)cc3)C2=O)CC1, the “% Inhibition @ 10 uM” value rises from -2.65% to 0.128%.

First: N#Cc1c(NC(=O)C2CCCO2)sc2c1CCCCCC2 (stereo not drawn)
Second: CCCCCCOc1ccc(C2C3CN(C)CC=C3C(C#N)=C(N)C2(C#N)C#N)cc1OC (stereo not drawn)
The “% Inhibition @ 10 uM” value of the first is higher: -1.06% for the first, -2.85% for the second.

Compared with CC(C)(C)N1C(=O)NC2C1NC(=O)N2C(C)(C)C (stereo not drawn), O=C1NC(=S)N/C1=C\c1cc(Cl)ccc1O is higher in “% Inhibition @ 10 uM” value: -3.66% for the first, 36.8% for the second.

CC1=C(C(=O)Nc2cccnc2)C(c2ccc(O)cc2)n2nc(SCc3ccccc3F)nc2N1 (stereo not drawn) was tested, and the “% Inhibition @ 10 uM” value was -0.363%.
